# Measured values: the supplement of paper PMC4604168 (melanoma cell lines)
# The other results are listed elsewhere or left out. Most values come without repeats; read them as rough.
# Key:
# Test in all cases: cell count relative to DMSO control; melanoma cells; higher = more viable cells
# Conditions in all cases: library dose: low library concentration; 72 h
# MZ2-MEL = test system: MZ2-MEL
# MeWo = test system: MeWo
# RPMI7951 = test system: RPMI7951
# RVH-421 = test system: RVH-421
# SkMel28 = test system: SkMel28
# SkMel2 = test system: SkMel2
# SkMel30 = test system: SkMel30
# UACC62 = test system: UACC62
# 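Further: cell number obtained by counting DAPI-stained nuclei in high-throughput microscope images with image analysis software, screen run in 1,536-well plates.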
SMILES,cell count (MZ2-MEL) [%],cell count (MeWo) [%],cell count (RPMI7951) [%],cell count (RVH-421) [%],cell count (SkMel28) [%],cell count (SkMel2) [%],cell count (SkMel30) [%],cell count (UACC62) [%]
"Cc1cn(-c2cc(NC(=O)c3ccc(C)c(Nc4nccc(-c5cccnc5)n4)c3)cc(C(F)(F)F)c2)cn1 [nilotinib] + NC(=O)c1ccc(N(C(N)=O)c2c(F)cccc2F)nc1-c1ccc(F)cc1F [VX702] (first compound 0.2 µM, partner dose 0.4 µM)",87.5,113,71,121,104,95.2,83.9,74.7
"Cc1cc(Nc2cc(N3CCN(C)CC3)nc(/C=C/c3ccccc3)n2)n[nH]1 + COc1ccc(Cl)c(Nc2nc3ccccc3nc2NS(=O)(=O)c2cccc(NC(=O)C(C)(C)N)c2)c1 [XL147] (first compound 0.04 µM, partner dose 0.8 µM)",96.9,80.3,101,98.4,92.3,99.4,93.8,105
"COc1ccc(C2=N[C@@H](c3ccc(Cl)cc3)[C@@H](c3ccc(Cl)cc3)N2C(=O)N2CCNC(=O)C2)c(OC(C)C)c1 [Nutlin-3] + CNC(=O)c1cc(Oc2ccc(NC(=O)Nc3ccc(Cl)c(C(F)(F)F)c3)cc2)ccn1 [sorafenib] (first compound 0.1 µM, partner dose 0.4 µM)",89.6,114,119,81.1,92.7,97.7,108,97.3
"Cc1cn(-c2cc(NC(=O)c3ccc(C)c(Nc4nccc(-c5cccnc5)n4)c3)cc(C(F)(F)F)c2)cn1 [nilotinib] + Nc1ncn([C@H]2C[C@H](O)[C@@H](CO)O2)c(=O)n1 [decitabine] (first compound 0.2 µM, partner dose 0.1 µM)",84.7,101,91.9,78,85.3,93.5,113,78.4
"Cc1cn(-c2cc(NC(=O)c3ccc(C)c(Nc4nccc(-c5cccnc5)n4)c3)cc(C(F)(F)F)c2)cn1 [nilotinib] + Clc1ccc(Nc2nnc(Cc3ccncc3)c3ccccc23)cc1 [vatalanib] (first compound 0.2 µM, partner dose 2 µM)",85.3,73.1,88.5,83.8,110,107,104,87.7
"Cc1cc(Nc2cc(N3CCN(C)CC3)nc(/C=C/c3ccccc3)n2)n[nH]1 + CN1CCN(c2ccc3nc(-c4c(N)c5c(F)cccc5[nH]c4=O)[nH]c3c2)CC1 [Dovitinib] (first compound 0.04 µM, partner dose 0.1 µM)",88.3,93.4,105,85.1,95,92.7,67.3,89.5
"Cc1cc(Nc2cc(N3CCN(C)CC3)nc(/C=C/c3ccccc3)n2)n[nH]1 + Nc1ncn([C@H]2C[C@H](O)[C@@H](CO)O2)c(=O)n1 [decitabine] (first compound 0.04 µM, partner dose 0.1 µM)",84.5,91.9,81.3,83.4,103,95.9,114,70.4
"Cn1c(=O)n(-c2ccc(C(C)(C)C#N)cc2)c2c3cc(-c4cnc5ccccc5c4)ccc3ncc21 + OCc1c[nH]c2ccccc12 [Indole-3-carbinol] (first compound 0.004 µM, partner dose 0.8 µM)",99.9,94.1,89.3,105,88.5,87.6,102,92.1
"Cc1cn(-c2cc(NC(=O)c3ccc(C)c(Nc4nccc(-c5cccnc5)n4)c3)cc(C(F)(F)F)c2)cn1 [nilotinib] + C#Cc1cccc(Nc2ncnc3cc(OCCOC)c(OCCOC)cc23)c1 [erlotinib] (first compound 0.2 µM, partner dose 0.8 µM)",87.8,93.1,61,93.8,109,97.8,86,84
"CC(C)C[C@H](NC(=O)[C@H](Cc1ccccc1)NC(=O)c1cnccn1)B(O)O [Bortezomib] + COCC[n+]1c2c(n(Cc3cnccn3)c1C)C(=O)c1ccccc1C2=O [YM155] (first compound 0.001 µM, partner dose 0.0004 µM)",48.4,74.6,56.9,64.3,83.7,81.3,87,62.1
"COc1ccc(C2=N[C@@H](c3ccc(Cl)cc3)[C@@H](c3ccc(Cl)cc3)N2C(=O)N2CCNC(=O)C2)c(OC(C)C)c1 [Nutlin-3] + CN(c1ncccc1CNc1nc(Nc2ccc3c(c2)CC(=O)N3)ncc1C(F)(F)F)S(C)(=O)=O [PF562271] (first compound 0.1 µM, partner dose 0.08 µM)",95,101,78.7,96.9,114,93,92.4,91.4
"Cc1cn(-c2cc(NC(=O)c3ccc(C)c(Nc4nccc(-c5cccnc5)n4)c3)cc(C(F)(F)F)c2)cn1 [nilotinib] + CS(=O)(=O)CCNCc1ccc(-c2ccc3ncnc(Nc4ccc(OCc5cccc(F)c5)c(Cl)c4)c3c2)o1 [lapatinib] (first compound 0.2 µM, partner dose 0.8 µM)",91.8,90.5,74.9,98.8,82.2,109,89.8,98.1
"COc1ccc(C2=N[C@@H](c3ccc(Cl)cc3)[C@@H](c3ccc(Cl)cc3)N2C(=O)N2CCNC(=O)C2)c(OC(C)C)c1 [Nutlin-3] + Nc1ccn([C@@H]2O[C@H](CO)[C@@H](O)C2(F)F)c(=O)n1 [gemcitabine] (first compound 0.1 µM, partner dose 0.0004 µM)",95.7,104,89,82.6,84.2,96,92.5,82.2
"CC(C)C[C@H](NC(=O)[C@H](Cc1ccccc1)NC(=O)c1cnccn1)B(O)O [Bortezomib] + C=C(c1ccc(C(=O)O)cc1)c1cc2c(cc1C)C(C)(C)CCC2(C)C [Bexarotene] (first compound 0.001 µM, partner dose 2 µM)",80,62,66.6,53.2,69.9,91.4,76.4,63.3
"COc1ccc(C2=N[C@@H](c3ccc(Cl)cc3)[C@@H](c3ccc(Cl)cc3)N2C(=O)N2CCNC(=O)C2)c(OC(C)C)c1 [Nutlin-3] + CCCCCCCCc1ccc(CCC(N)(CO)CO)cc1 [fingolimod] (first compound 0.1 µM, partner dose 2 µM)",96.7,90.9,62.7,90.7,82.6,84.1,113,79
"CC(C)C[C@H](NC(=O)[C@H](Cc1ccccc1)NC(=O)c1cnccn1)B(O)O [Bortezomib] + Cn1nnc2c(C(N)=O)ncn2c1=O [temozolomide] (first compound 0.001 µM, partner dose 2 µM)",38.1,76.7,62.6,32.8,82.2,91.1,65.9,67.4
"Cc1cn(-c2cc(NC(=O)c3ccc(C)c(Nc4nccc(-c5cccnc5)n4)c3)cc(C(F)(F)F)c2)cn1 [nilotinib] + Cn1nnc2c(C(N)=O)ncn2c1=O [temozolomide] (first compound 0.2 µM, partner dose 2 µM)",89.8,110,78.7,96.6,90.6,99.3,102,79.9
"COc1ccc(C2=N[C@@H](c3ccc(Cl)cc3)[C@@H](c3ccc(Cl)cc3)N2C(=O)N2CCNC(=O)C2)c(OC(C)C)c1 [Nutlin-3] + NC1(c2ccc(-c3nc4ccn5c(=O)[nH]nc5c4cc3-c3ccccc3)cc2)CCC1 [MK2206] (first compound 0.1 µM, partner dose 0.4 µM)",91.9,98,104,91.8,87.2,89.1,112,86.6
"Cc1cc(Nc2cc(N3CCN(C)CC3)nc(/C=C/c3ccccc3)n2)n[nH]1 + NC1(c2ccc(-c3nc4ccn5c(=O)[nH]nc5c4cc3-c3ccccc3)cc2)CCC1 [MK2206] (first compound 0.04 µM, partner dose 0.4 µM)",95,79.3,86.9,68,75.7,73.1,81.1,83.2
"Cn1c(=O)n(-c2ccc(C(C)(C)C#N)cc2)c2c3cc(-c4cnc5ccccc5c4)ccc3ncc21 + Cn1c(Nc2ccc(C(F)(F)F)cc2)nc2cc(Oc3ccnc(-c4ncc(C(F)(F)F)[nH]4)c3)ccc21 [CHIR265] (first compound 0.004 µM, partner dose 0.08 µM)",67.2,59,45.8,62.5,65.5,64.3,44.7,46.3
"Cc1cc(Nc2cc(N3CCN(C)CC3)nc(/C=C/c3ccccc3)n2)n[nH]1 + Clc1ccc(Nc2nnc(Cc3ccncc3)c3ccccc23)cc1 [vatalanib] (first compound 0.04 µM, partner dose 2 µM)",99.2,78.7,77.5,94.5,93.2,104,101,92.4
